According to the supplement of paper PMC10126150:
Values marked as one replicate rest on one cluster of the flow cell; about a third of the high ones do not repeat.

System: ATP
Assay: switch fluorescence ratio, 500 uM ATP over buffer (Cy3 cluster intensity, sum of 5 cycles each) (fold (ratio)); higher = stronger signal-on switching upon ATP binding; sequences stand for … in TCGTCGGCAGCGTCAGATGTGTATAAGAGACAGTTTTTTTTTTTTTTTTTTTTTTTTT…TC
Conditions: aptamer strand: ATP DNA aptamer (quencher-CACCTGGGGGAGTATTGCGGAGGAAGG + anchor), 100 nM annealed; ATP concentration: 500 uM; one replicate
Procedure, shortened: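 Clusters carrying Cy3-labelled switching strands on a modified Illumina MiSeq flow-cell were annealed to 100 nM quencher-labelled ATP aptamer and imaged in selection buffer. They were imaged again after 15 min with 500 uM ATP at 22 °C, over five buffer/ATP cycles with NaOH stripping and re-annealing in between. For each cluster, the fluorescence ratio is the summed Cy3 intensity of the target cycles divided by that of the buffer cycles, averaged per switch-domain sequence. Clusters outside 100-1000 RFU were left out.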
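Note: ATP exposure 15 min at 22 °C before imaging.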

AATTGTCCGT showed a switch fluorescence ratio of 1.06.
CTTACAGTAA gave a switch fluorescence ratio of 1.11.
Work on CTGGGGTGGT yielded a switch fluorescence ratio of 0.973.
Sequence TTATCACTTT has a switch fluorescence ratio of 1.02.
Work on CATGTTTGCG yielded a switch fluorescence ratio of 0.959.
Work on CATTTCCGTG yielded a switch fluorescence ratio of 1.02.
Sequence CAGAATAGTG has a switch fluorescence ratio of 0.98.
CATTCGAGCT was tested, and the switch fluorescence ratio was 0.969.
CGGGCATCCG showed a switch fluorescence ratio of 0.979.
Work on TAAAACTAAT yielded a switch fluorescence ratio of 0.95.
TTTTATCTGC showed a switch fluorescence ratio of 1.01.
For TTTAATACC, the switch fluorescence ratio was 1.03.
AACTTATCCA showed a switch fluorescence ratio of 1.05.
AACGCACGCA was tested, and the switch fluorescence ratio was 1.67.
Work on AGAATGTCCC yielded a switch fluorescence ratio of 1.02.
AACGTTTGAG showed a switch fluorescence ratio of 0.998.
With TCGCGAATTA the switch fluorescence ratio was 1.
With TGCATTGGAA the switch fluorescence ratio was 0.999.
In the case of ACATAATCGA, the switch fluorescence ratio is reported as 1.04.
Work on AATACATAA yielded a switch fluorescence ratio of 1.06.
In the case of AAAGGTACG, the switch fluorescence ratio is reported as 0.922.
GTGCCCTCGT gave a switch fluorescence ratio of 0.993.
GGTTAGACGG was tested, and the switch fluorescence ratio was 0.946.
In the case of TACCATGGGG, the switch fluorescence ratio is reported as 1.03.
AGCCTATGAT showed a switch fluorescence ratio of 1.01.
Work on GCGCATACTG yielded a switch fluorescence ratio of 2.23.
TTACTGAGGC gave a switch fluorescence ratio of 1.01.
CGTTAATTTG gave a switch fluorescence ratio of 0.931.
With CCGTTAAATG the switch fluorescence ratio was 1.04.
ACCACTGTTT gave a switch fluorescence ratio of 1.02.
AGACTATTAC showed a switch fluorescence ratio of 1.11.
With ATCGGACTG the switch fluorescence ratio was 1.06.
Work on CGACCTTAGT yielded a switch fluorescence ratio of 1.05.
GAAGGTGCTT showed a switch fluorescence ratio of 1.08.
For AGAGTCTTTA, the switch fluorescence ratio was 0.98.
CCCACTTAAC was tested, and the switch fluorescence ratio was 1.09.
For ATGAGATAAA, the switch fluorescence ratio was 0.988.
GCCTTCCAGA was tested, and the switch fluorescence ratio was 1.39.
TAACGTTTGG gave a switch fluorescence ratio of 0.994.
ACGTGCAACA gave a switch fluorescence ratio of 0.989.
CCACGTTTAC showed a switch fluorescence ratio of 2.21.
With GCGGACTTT the switch fluorescence ratio was 0.939.
For CTCTCGATTG, the switch fluorescence ratio was 1.05.
With TCCCTTGCAG the switch fluorescence ratio was 1.09.
For GAAACAGTGG, the switch fluorescence ratio was 1.02.
In the case of AATAAAACAA, the switch fluorescence ratio is reported as 0.987.
For GCTAGGGTCT, the switch fluorescence ratio was 1.03.
In the case of TCCTTATAGT, the switch fluorescence ratio is reported as 1.04.
AGAGGATGGA showed a switch fluorescence ratio of 0.991.
GCGAGAGACA was tested, and the switch fluorescence ratio was 1.05.
ATGTTTTTCC gave a switch fluorescence ratio of 1.01.
TCATCTGGGC showed a switch fluorescence ratio of 1.06.
For GATAGAGCCG, the switch fluorescence ratio was 1.02.
CATCCTTGTG gave a switch fluorescence ratio of 1.04.
With AGTTATTGGT the switch fluorescence ratio was 0.991.
Work on CAATTGTCTT yielded a switch fluorescence ratio of 1.01.
CATAGCCAAA was tested, and the switch fluorescence ratio was 0.978.
Work on CGTTGTGGGC yielded a switch fluorescence ratio of 0.99.
Work on GGATTGTTAA yielded a switch fluorescence ratio of 0.99.
Work on TGACGATGTG yielded a switch fluorescence ratio of 0.977.
Work on CCTGCTGTGA yielded a switch fluorescence ratio of 1.19.
In the case of CTTCTAAGCT, the switch fluorescence ratio is reported as 1.03.
TAATCGACGT showed a switch fluorescence ratio of 1.04.
For TTGAGCTATG, the switch fluorescence ratio was 0.976.
TTAGAATTGA showed a switch fluorescence ratio of 1.02.
In the case of CTTTTGATGC, the switch fluorescence ratio is reported as 0.97.
In the case of TTCGTCTGGA, the switch fluorescence ratio is reported as 0.971.
Work on TCTTCTGATC yielded a switch fluorescence ratio of 1.07.
TCTAAAACAC showed a switch fluorescence ratio of 1.4.
Sequence GATACACACG has a switch fluorescence ratio of 1.56.
TTCTGCCTTT showed a switch fluorescence ratio of 0.951.
Work on TAGGGTGCAA yielded a switch fluorescence ratio of 1.03.
For CTTCACTGA, the switch fluorescence ratio was 1.01.
AGGTGTTCAT was tested, and the switch fluorescence ratio was 0.978.
In the case of TTTCCTCGTG, the switch fluorescence ratio is reported as 0.985.
Work on TTTCTACGAT yielded a switch fluorescence ratio of 1.04.
GTAGTATATT showed a switch fluorescence ratio of 0.998.
Work on AGGGTCCTGG yielded a switch fluorescence ratio of 0.964.
For CGTATCGT, the switch fluorescence ratio was 1.
For AGAGTTCGGA, the switch fluorescence ratio was 0.99.
With TCAGGGATAC the switch fluorescence ratio was 2.11.
With GTACCAAGCA the switch fluorescence ratio was 1.03.
In the case of TGCCTCAAGA, the switch fluorescence ratio is reported as 1.25.
Sequence TAACCTATC has a switch fluorescence ratio of 1.19.
ACTGTAGTGC gave a switch fluorescence ratio of 1.22.
Sequence TTTTATCACG has a switch fluorescence ratio of 0.97.
GCCAGGTGAG showed a switch fluorescence ratio of 4.66.
TGCTGCCGGA was tested, and the switch fluorescence ratio was 1.02.
ATTGCAAATT was tested, and the switch fluorescence ratio was 0.963.
For TATAAGATT, the switch fluorescence ratio was 0.967.
CTCCGTGAGC showed a switch fluorescence ratio of 2.86.
In the case of GACCGATGAC, the switch fluorescence ratio is reported as 1.32.
TCTGGGGTCT was tested, and the switch fluorescence ratio was 0.963.
For CCGTAGCTTG, the switch fluorescence ratio was 3.87.
TATTATGGTG gave a switch fluorescence ratio of 0.967.
AGTTGTAATA gave a switch fluorescence ratio of 0.97.
AAGTGGCAGG gave a switch fluorescence ratio of 1.01.
Sequence GCAGTATT has a switch fluorescence ratio of 1.41.
AGCAGCATCT was tested, and the switch fluorescence ratio was 1.03.
Work on GAGTTCATT yielded a switch fluorescence ratio of 1.
For TAGCTGTCAA, the switch fluorescence ratio was 1.05.
CTGCAGTGAG gave a switch fluorescence ratio of 1.1.
ATGATGGCAT showed a switch fluorescence ratio of 1.02.
In the case of CTAGCGTTGA, the switch fluorescence ratio is reported as 1.03.
Work on ATGGAGGCA yielded a switch fluorescence ratio of 1.03.
With GTATCACTTA the switch fluorescence ratio was 1.02.
For AGCCCGGCTC, the switch fluorescence ratio was 0.977.
AGTGCGTCCC gave a switch fluorescence ratio of 0.967.
CCGTCTGAAT was tested, and the switch fluorescence ratio was 1.06.
ATGGTGGT was tested, and the switch fluorescence ratio was 0.972.
Sequence GCGGTAACTA has a switch fluorescence ratio of 1.01.
GTCATCATTA was tested, and the switch fluorescence ratio was 1.04.
AGGGAATTCA showed a switch fluorescence ratio of 1.
Work on GGAGATCCCG yielded a switch fluorescence ratio of 0.989.
TGGGTGTACA gave a switch fluorescence ratio of 1.06.
Work on GTGGAGTGCG yielded a switch fluorescence ratio of 0.967.
TTGGTGAGGA gave a switch fluorescence ratio of 0.973.
In the case of TAGCCAGTAT, the switch fluorescence ratio is reported as 1.14.
In the case of GGCGGTGTCA, the switch fluorescence ratio is reported as 0.965.
For CTAGGGGGCC, the switch fluorescence ratio was 0.968.
Sequence CTTACTTATG has a switch fluorescence ratio of 1.01.
In the case of AATGGGTGCG, the switch fluorescence ratio is reported as 0.993.
For GTCAACTGGT, the switch fluorescence ratio was 1.02.
With TAGGTGTCGT the switch fluorescence ratio was 0.997.
TTTGCGGGAG gave a switch fluorescence ratio of 1.
Work on TATGAGTTGT yielded a switch fluorescence ratio of 1.02.
For GGTTCACCCG, the switch fluorescence ratio was 0.986.
For AGTGGTGTCG, the switch fluorescence ratio was 0.889.
GAGTAGCCGC showed a switch fluorescence ratio of 1.07.
In the case of TCCTGCTTGG, the switch fluorescence ratio is reported as 1.
Sequence TGATGGGAGA has a switch fluorescence ratio of 0.979.
CGCATGATTA was tested, and the switch fluorescence ratio was 1.05.
In the case of CGTTGTAAGC, the switch fluorescence ratio is reported as 1.03.
ACTCTCATCC was tested, and the switch fluorescence ratio was 1.05.
ACATGACGCT gave a switch fluorescence ratio of 1.04.
Sequence GAACGAGGCA has a switch fluorescence ratio of 1.01.
Sequence CCGGTTGCTC has a switch fluorescence ratio of 2.08.
With CCGGACTCAA the switch fluorescence ratio was 2.59.
In the case of CATATAGACA, the switch fluorescence ratio is reported as 1.04.
Work on ATAGCGGATG yielded a switch fluorescence ratio of 1.
In the case of AGAAAATCTG, the switch fluorescence ratio is reported as 1.03.
Work on AATCCATTT yielded a switch fluorescence ratio of 0.97.
AGGAAACCGT gave a switch fluorescence ratio of 0.996.
CAGCGTTTTG gave a switch fluorescence ratio of 1.04.
GTGGGCGCGT showed a switch fluorescence ratio of 1.
In the case of GTTTAGGGAG, the switch fluorescence ratio is reported as 0.991.
AACACTGCGT gave a switch fluorescence ratio of 1.02.
For AACTGGGCGA, the switch fluorescence ratio was 1.01.
For CCTGTCCACT, the switch fluorescence ratio was 0.998.
GCCGTGACCG showed a switch fluorescence ratio of 1.04.
GCCATTAGGG showed a switch fluorescence ratio of 1.02.
For TTACATTGTC, the switch fluorescence ratio was 0.998.
Sequence AAGGAGTC has a switch fluorescence ratio of 0.98.
With TTTGGCCATC the switch fluorescence ratio was 0.998.
Sequence GATACACTTC has a switch fluorescence ratio of 1.03.
Work on AGCCTGACGC yielded a switch fluorescence ratio of 1.29.
CTTCGTTTG gave a switch fluorescence ratio of 0.977.
GCTCAAGCCC was tested, and the switch fluorescence ratio was 1.03.
For TAAAGTGGCA, the switch fluorescence ratio was 0.991.
TGGATTTGGC showed a switch fluorescence ratio of 1.03.
In the case of AGTTTTTAGT, the switch fluorescence ratio is reported as 0.966.
Work on TTAATCGACG yielded a switch fluorescence ratio of 0.942.
With TAGTAACGGG the switch fluorescence ratio was 1.02.
In the case of CAGACATTGA, the switch fluorescence ratio is reported as 0.985.
GCACTACTCG showed a switch fluorescence ratio of 2.47.
For AAGGTCAGG, the switch fluorescence ratio was 1.01.
AGGCGTGATG gave a switch fluorescence ratio of 1.02.
GATGCTTGTT showed a switch fluorescence ratio of 1.03.
With GCAAACGAGG the switch fluorescence ratio was 1.13.
TCATGCGTG was tested, and the switch fluorescence ratio was 0.971.
Work on TACTCGACGA yielded a switch fluorescence ratio of 1.09.
GGCTTATAGT gave a switch fluorescence ratio of 1.01.
Sequence TGCGGGTCG has a switch fluorescence ratio of 1.04.
GGACTTACAG gave a switch fluorescence ratio of 1.04.
GAGTGCGTTG showed a switch fluorescence ratio of 0.973.
In the case of ATGGCGGAG, the switch fluorescence ratio is reported as 0.988.
For TCACCGAGAT, the switch fluorescence ratio was 1.08.
TGACAAGAAA was tested, and the switch fluorescence ratio was 1.08.
Work on TTGAATGAAA yielded a switch fluorescence ratio of 1.01.
With GGTCGAGTTG the switch fluorescence ratio was 0.989.
In the case of TGTGTCTGAA, the switch fluorescence ratio is reported as 1.01.
TTGAATCTGT showed a switch fluorescence ratio of 0.982.
TCATGACATC gave a switch fluorescence ratio of 1.01.
AGCTGAGCTT gave a switch fluorescence ratio of 1.
Work on CGTACGGTGA yielded a switch fluorescence ratio of 0.993.
AGGATTGTTA gave a switch fluorescence ratio of 1.02.
TGTTTTTGG was tested, and the switch fluorescence ratio was 0.967.
In the case of TACAGGGTGA, the switch fluorescence ratio is reported as 1.02.
Sequence ATGTATGAGC has a switch fluorescence ratio of 1.01.
ACTAAATCC was tested, and the switch fluorescence ratio was 0.971.
CGGAGGTATT showed a switch fluorescence ratio of 1.01.
Sequence AGGGCGTCAG has a switch fluorescence ratio of 0.961.
Work on AATTAGTAAT yielded a switch fluorescence ratio of 1.03.
AGCCTGATCG gave a switch fluorescence ratio of 0.993.
Sequence TGGTTCTGAA has a switch fluorescence ratio of 1.04.
Work on GGGCGGATTG yielded a switch fluorescence ratio of 1.01.
With GATTGAGATA the switch fluorescence ratio was 1.02.
AAAAAAAAGT showed a switch fluorescence ratio of 0.978.
AGCCTAGGGG gave a switch fluorescence ratio of 1.07.
With TGCCACCGAT the switch fluorescence ratio was 1.04.
For CCTTGCTGGA, the switch fluorescence ratio was 0.987.
